Measurements published in PMC10476561.
No constants are given. Whether binding was seen depends on the method and setting. Binding seen in cells or lysates may run through a third protein. Some binding calls cover weakened binding; strength is not graded here. For part of these data: Where a sequence is shown, tags or fusion partners need not be part of it.

Sequences of proteins named here, by UniProt entry; tags and fusion partners are left off.
UniProt P49736: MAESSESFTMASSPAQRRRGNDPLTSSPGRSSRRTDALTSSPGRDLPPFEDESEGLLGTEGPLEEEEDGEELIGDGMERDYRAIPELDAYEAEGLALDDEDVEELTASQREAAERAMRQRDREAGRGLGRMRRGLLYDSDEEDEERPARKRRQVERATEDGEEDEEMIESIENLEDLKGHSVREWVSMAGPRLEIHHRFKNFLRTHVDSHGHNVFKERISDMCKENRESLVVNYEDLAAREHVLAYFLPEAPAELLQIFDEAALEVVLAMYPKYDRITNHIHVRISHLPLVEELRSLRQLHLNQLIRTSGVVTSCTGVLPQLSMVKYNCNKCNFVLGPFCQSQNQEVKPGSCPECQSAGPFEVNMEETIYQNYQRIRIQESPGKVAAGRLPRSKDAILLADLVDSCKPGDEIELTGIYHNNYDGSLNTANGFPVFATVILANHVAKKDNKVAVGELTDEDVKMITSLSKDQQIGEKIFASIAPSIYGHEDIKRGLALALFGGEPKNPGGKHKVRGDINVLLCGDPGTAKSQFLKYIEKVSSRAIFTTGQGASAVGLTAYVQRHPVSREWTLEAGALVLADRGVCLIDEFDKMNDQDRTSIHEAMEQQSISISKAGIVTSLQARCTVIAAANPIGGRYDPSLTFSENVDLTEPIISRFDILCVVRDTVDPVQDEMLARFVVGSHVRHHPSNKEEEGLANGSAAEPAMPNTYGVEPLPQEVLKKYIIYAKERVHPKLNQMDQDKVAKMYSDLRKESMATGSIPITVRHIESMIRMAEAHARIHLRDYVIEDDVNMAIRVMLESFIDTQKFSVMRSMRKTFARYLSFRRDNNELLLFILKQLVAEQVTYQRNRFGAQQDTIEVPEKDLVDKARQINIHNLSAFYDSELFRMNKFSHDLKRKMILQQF
UniProt Q05086: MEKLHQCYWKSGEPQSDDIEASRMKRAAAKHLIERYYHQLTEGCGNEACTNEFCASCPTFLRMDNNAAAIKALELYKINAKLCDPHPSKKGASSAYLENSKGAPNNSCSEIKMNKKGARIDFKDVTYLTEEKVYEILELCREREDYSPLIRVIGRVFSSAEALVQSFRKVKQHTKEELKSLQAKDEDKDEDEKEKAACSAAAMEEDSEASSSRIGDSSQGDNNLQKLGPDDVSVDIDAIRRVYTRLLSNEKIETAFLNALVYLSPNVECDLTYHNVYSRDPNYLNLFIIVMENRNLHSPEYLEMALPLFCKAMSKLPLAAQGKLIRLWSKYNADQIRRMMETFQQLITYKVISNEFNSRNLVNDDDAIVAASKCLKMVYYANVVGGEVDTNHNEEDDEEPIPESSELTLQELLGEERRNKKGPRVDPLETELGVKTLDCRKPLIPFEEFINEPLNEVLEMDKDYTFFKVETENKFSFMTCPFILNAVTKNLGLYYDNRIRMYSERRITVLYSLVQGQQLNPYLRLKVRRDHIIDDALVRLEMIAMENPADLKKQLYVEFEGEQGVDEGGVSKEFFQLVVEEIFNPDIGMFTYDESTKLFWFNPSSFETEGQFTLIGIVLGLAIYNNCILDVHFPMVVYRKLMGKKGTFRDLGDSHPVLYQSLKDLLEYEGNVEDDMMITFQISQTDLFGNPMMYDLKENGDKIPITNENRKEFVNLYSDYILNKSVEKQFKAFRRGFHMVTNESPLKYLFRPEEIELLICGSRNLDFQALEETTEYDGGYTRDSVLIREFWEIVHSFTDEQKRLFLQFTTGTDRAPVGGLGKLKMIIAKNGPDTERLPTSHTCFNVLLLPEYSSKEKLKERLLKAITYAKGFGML

Legend:
Experiment in all cases: co-IP; HEK293T cotransfected with E6AP-HA and MCM2/4/6-Flag; lysis in 50 mM Tris-Cl, 150 mM NaCl, 5 mM EDTA, 1% NP-40, pH 7.8; anti-Flag affinity gel overnight at 4 °C; blots with anti-Flag and anti-HA
[1] = molecular target: T1, MCM6-Flag (UniProt Q14566)
T1 sequence: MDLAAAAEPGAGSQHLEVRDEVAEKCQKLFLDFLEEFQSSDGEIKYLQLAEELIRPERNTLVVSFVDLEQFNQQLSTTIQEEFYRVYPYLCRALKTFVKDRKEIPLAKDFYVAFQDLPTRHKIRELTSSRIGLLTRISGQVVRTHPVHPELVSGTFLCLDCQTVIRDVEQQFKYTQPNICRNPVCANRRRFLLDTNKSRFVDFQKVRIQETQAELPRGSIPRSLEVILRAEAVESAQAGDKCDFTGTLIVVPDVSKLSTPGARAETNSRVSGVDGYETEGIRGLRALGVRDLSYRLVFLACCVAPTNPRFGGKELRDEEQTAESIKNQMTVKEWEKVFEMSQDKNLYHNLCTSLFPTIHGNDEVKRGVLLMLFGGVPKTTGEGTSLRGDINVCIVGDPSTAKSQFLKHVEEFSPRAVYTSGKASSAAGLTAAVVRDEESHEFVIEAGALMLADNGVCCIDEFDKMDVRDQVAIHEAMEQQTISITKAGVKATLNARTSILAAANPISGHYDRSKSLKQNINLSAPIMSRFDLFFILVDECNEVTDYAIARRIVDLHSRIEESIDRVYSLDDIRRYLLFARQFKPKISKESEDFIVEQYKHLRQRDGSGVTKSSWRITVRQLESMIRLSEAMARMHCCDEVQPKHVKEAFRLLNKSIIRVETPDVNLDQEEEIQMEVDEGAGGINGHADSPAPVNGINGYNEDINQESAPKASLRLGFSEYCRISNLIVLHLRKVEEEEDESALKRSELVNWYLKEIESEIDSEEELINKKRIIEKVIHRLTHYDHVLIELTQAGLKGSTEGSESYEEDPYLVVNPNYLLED

[2] = molecular target: MCM2-Flag (UniProt P49736)
[3] = molecular target: T2, MCM4-Flag (UniProt P33991)
T2 sequence: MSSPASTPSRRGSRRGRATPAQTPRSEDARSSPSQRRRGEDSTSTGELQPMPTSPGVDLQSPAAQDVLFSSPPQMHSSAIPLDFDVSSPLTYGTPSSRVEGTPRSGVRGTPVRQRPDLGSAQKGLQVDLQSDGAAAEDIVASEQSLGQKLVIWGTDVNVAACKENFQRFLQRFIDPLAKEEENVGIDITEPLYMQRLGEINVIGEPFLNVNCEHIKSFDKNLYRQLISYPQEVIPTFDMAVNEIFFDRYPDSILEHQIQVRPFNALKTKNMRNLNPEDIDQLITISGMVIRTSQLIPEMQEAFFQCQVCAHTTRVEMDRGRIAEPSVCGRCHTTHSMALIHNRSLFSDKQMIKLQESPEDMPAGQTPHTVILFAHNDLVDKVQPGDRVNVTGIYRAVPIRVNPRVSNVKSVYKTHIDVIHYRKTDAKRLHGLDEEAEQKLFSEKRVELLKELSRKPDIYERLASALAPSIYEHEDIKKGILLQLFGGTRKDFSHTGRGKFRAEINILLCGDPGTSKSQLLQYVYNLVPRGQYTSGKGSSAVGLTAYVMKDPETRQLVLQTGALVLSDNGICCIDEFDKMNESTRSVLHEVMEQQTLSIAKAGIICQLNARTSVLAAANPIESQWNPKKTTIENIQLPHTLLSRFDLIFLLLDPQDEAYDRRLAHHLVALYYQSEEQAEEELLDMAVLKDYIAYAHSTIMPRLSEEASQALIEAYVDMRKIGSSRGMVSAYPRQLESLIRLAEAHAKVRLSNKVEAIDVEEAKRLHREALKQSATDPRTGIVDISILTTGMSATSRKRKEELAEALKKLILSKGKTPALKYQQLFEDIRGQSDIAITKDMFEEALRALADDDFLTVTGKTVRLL

Measured: binding

E6AP-HA (from UniProt Q05086 1-875) (enzyme)
binds: all assays above
